Target: human serum albumin (HSA), P02768

B1: ABP-Taq (full length Taq-polymerase fused to HSA-binding domain of Streptococcal protein G) (protein)
chain: LAEAKVLANRELDKYGVSDYHKNLINNAKTVEGVKDLQAQVVESAKKARISEATDGLSDFLKSQTPAEDTVKSIELAEAKVLANRELDKYGVSDYYKNLINNAKTVEGVKALIDEILAALPGMLPLFEPKGRVLLVDGHHLAYRTFHALKGLTTSRGEPVQAVYGFAKSLLKALKEDGDAVIVVFDAKAPSFRHEAYGGYKAGRAPTPEDFPRQLALIKELVDLLGLARLEVPGYEADDVLASLAKKAEKEGYEVRILTADKDLYQLLSDRIHVLHPEGYLITPAWLWEKYGLRPDQWADYRALTGDESDNLPGVKGIGEKTARKLLEEWGSLEALLKNLDRLKPAIREKILAHMDDLKLSWDLAKVRTDLPLEVDFAKRREPDRERLRAFLERLEFGSLLHEFGLLESPKALEEAPWPPPEGAFVGFVLSRKEPMWADLLALAAARGGRVHRAPEPYKALRDLKEARGLLAKDLSVLALREGLGLPPGDDPMLLAYLLDPSNTTPEGVARRYGGEWTEEAGERAALSERLFANLWGRLEGEERLLWLYREVERPLSAVLAHMEATGVRLDVAYLRALSLEVAEEIARLEAEVFRLAGHPFNLNSRDQLERVLFDELGLPAIGKTEKTGKRSTSAAVLEALREAHPIVEKILQYRELTKLKSTYIDPLPDLIHPRTGRLHTRFNQTATATGRLSSSDPNLQNIPVRTPLGQRIRRAFIAEEGWLLVALDYSQIELRVLAHLSGDENLIRVFQEGRDIHTETASWMFGVPREAVDPLMRRAAKTINFGVLYGMSAHRLSQELAIPYEEAQAFIERYFQSFPKVRAWIEKTLEEGRRRGYVETLFGRRRYVPDLEARVKSVREAAERMAFNMPVQGTAADLMKLAMVKLFPRLEEMGARMLLQVHDELVLEAPKERAEAVARLAKEVMEGVYPLAVPLEVEVGIGEDWLSAKE
  hot-start effect in kRAS PCR (primer-dimer formation): All the immobilised enzymes show hot-start effect in PCR with regard to preventing primer-dimer formation

From patent US6610479
